Reference: PubChem BioAssay AID1645887 (National Center for Advancing Translational Sciences (NCATS), 2021)
“And” between values parts separate entries of the source, which are not always exact repeats. Equal entries are not always repeated. Screen size: about 16,000 compounds; about 40 (0.2%) were called active. Inconclusive results (about 1%) are left out. Calls come from the whole dose curve; as a rule, active = well fitted activation curve with a large enough effect; inconclusive = small, poorly fitted or top-dose-only effect, or another doubt; inactive = no such curve, though single readings can be large or run the other way. The list shows a part of the results.

Target: Rap guanine nucleotide exchange factor 4 (Homo sapiens) (UniProt Q8WZA2)
Assay: Validation qHTS for agonist of cAMP-regulated guanine nucleotide exchange factor 4 (EPAC2);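 note: exchange makes BODIPY-GDP fluorescence drop when released from Rap1B; series mostly up to about 150 µM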
Details: EPAC2 Rap1B BODIPY-GDP exchange, fluorescence; activation: hits give high values
Method in brief: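 Signal normalized against 6.5 mM cAMP as agonist control. Mix of EPAC2 (100 nM), RAP1B-BODIPY-GDP (250 nM) and GDP (50 uM) was read kinetically at 480/540 nm, every 5 min over 30 min, after 5 min room-temperature incubation with compound.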
% is set by controls: 0 for no effect and ±100 for the full control effect.

UniProt Q8WZA2, sequence (Q8WZA2 whole entry, looked up): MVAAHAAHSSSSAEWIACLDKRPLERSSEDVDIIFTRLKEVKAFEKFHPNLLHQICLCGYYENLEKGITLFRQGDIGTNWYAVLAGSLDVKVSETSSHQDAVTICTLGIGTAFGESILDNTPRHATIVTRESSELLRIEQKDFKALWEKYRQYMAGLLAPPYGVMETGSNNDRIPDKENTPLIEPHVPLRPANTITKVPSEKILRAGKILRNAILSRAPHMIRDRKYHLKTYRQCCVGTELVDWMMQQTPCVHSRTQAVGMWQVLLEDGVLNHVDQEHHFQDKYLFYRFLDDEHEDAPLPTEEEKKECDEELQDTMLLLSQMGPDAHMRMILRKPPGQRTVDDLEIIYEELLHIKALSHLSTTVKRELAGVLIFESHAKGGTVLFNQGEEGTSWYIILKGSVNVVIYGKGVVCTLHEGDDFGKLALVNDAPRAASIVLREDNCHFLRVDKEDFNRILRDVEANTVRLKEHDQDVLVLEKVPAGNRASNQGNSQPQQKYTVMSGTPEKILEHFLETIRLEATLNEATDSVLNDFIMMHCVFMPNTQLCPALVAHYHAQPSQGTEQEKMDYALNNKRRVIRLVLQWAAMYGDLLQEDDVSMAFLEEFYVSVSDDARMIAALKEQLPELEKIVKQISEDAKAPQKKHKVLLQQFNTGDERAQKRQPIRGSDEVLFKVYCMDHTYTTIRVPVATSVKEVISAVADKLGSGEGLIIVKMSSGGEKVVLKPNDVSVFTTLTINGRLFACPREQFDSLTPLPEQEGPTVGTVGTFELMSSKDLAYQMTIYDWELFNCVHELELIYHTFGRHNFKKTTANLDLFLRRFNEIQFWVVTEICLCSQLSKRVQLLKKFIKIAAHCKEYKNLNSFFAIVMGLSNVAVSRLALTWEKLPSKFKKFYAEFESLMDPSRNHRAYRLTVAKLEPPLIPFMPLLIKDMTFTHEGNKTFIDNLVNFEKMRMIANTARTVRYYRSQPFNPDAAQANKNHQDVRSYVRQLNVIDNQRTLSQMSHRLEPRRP

activation, inactive:
COc1cc(-c2cc(C)c3cccc(OC)c3n2)cc2c1OCCN(C(=O)CC1NC(=O)c3ccccc31)C2 (stereo unspecified) -8.91%, COc1ccc(-c2nc3cnc(OC)nc3n(CCc3ccccc3)c2=O)cc1 -7.57%, Nc1nccs1 -18.7%, CC(C)NC(=O)N1CC[C@@]2(CCCN(C(=O)c3ccncc3)C2)C1 -11.5%, COc1ccc(Cl)cc1N1C(=O)[C@@H]2C[C@H]1CN2Cc1nc2ccccc2nc1C -24.6%, Cn1c(=O)c2c(ncn2CC(O)CO)n(C)c1=O (stereo unspecified) 4.72% and 4.29%, CCNc1ncc2nc(-c3cc(F)cc(F)c3)c(=O)n(CCOC)c2n1 -13.8%, CC(CCC(=O)O)C1CCC2C3C(O)C[C@@H]4CC(O)CC[C@@]4(C)C3CC[C@@]12C (stereo partly specified) -11.9% and 4.12%, COc1ccc(C(=O)N2CCC3(CC2)CCN(c2cccc(-c4ccccc4)c2)CC3)cc1 0.0215%, C=CCCCCCCCCC(=O)OC -2.17%, COc1ccc(-c2nc3cnc(N4CCNCC4)nc3n(C3CC3)c2=O)cc1 -0.379%, CC(C)=CCCC1(C)C=Cc2c(c(C)cc3c2[nH]c2ccccc23)O1 (stereo unspecified) 24.9%, CCCCCC1CCNCC1 -15.7%, COCCn1c(=O)c(-c2ccc(F)cc2)nc2cnc(OCc3ccccc3)nc21 -23%, COc1ccccc1-c1cncnc1Nc1ccccc1 -15.8%, COc1ccc2[nH]cc(CCNc3ccnc(-c4ccccc4Cl)n3)c2c1 -5.37%, COc1cccc(Cn2c(=O)c(C)nc3cnc(N4CCNCC4)nc32)c1 4.92%, COC(=O)C(O)C1C(C)(C)C(OC(C)=O)C2CC3=C4CC(=O)OC(c5ccoc5)[C@]4(C)CCC3[C@@]1(C)C2=O (stereo partly specified) -10.7%, C=C1CCC2[C@](C)(CO)[C@H](O)CC[C@@]2(C)[C@@H]1C/C=C1/C(=O)OC[C@H]1O (stereo partly specified) -4.87%, O=C(c1cc(C(F)(F)F)cc(C(F)(F)F)c1)N1CCC2(CCCN(Cc3ccccc3)C2)CC1 -6.26%, CS(=O)c1ccc(-c2nc(-c3ccc(F)cc3)c(-c3ccncc3)[nH]2)cc1 (stereo unspecified) -19.8% and -6.34%, COCCn1c(=O)c(-c2ccc(F)cc2)nc2cncnc21 -15.8%, CC(C)CN1CC[C@@]2(CCCN(C(=O)c3csnn3)C2)C1 -7.63%, CC(C)CN1CCC(=O)N(CCO)CC1 -3.13%, COc1cc(CN2CCc3nnc(C(NS(C)(=O)=O)C(C)C)n3CC2)ccc1F (stereo unspecified) -2.91%, COc1ccc(OC)c(CN2CCOc3ccc(C(O)c4cccnc4)cc3C2)c1 (stereo unspecified) -4.57%, CNC1(C)C2CCC(C2)C1(C)C (stereo unspecified) -13.1% and -21.9%, Cc1nc2cncnc2n(Cc2ccccc2Cl)c1=O -13%, NC(=O)C1(N2CCCCC2)CCN(CCCC(=O)c2ccc(F)cc2)CC1 -6%, O=C(c1ccco1)N1CCC2(CC1)CCN(C(c1ccccc1)c1ccccc1)CC2 -3.07%, COCCn1c(=O)c(-c2cn(C)c3ccccc23)nc2cnc(OCc3ccccc3)nc21 -7.63%, CN(Cc1ccco1)c1nc(-c2cccc(C#N)c2)nc2ccccc12 -3.51%, S=c1nc[nH]c2nc[nH]c12 -17.7% and -9.32%, CC12CCC(C[N+](C)(CCC[N+](C)(C)C)C1)C2(C)C (stereo unspecified) -3.9%, Cn1cc(-c2nc3cnc(Oc4ccccc4)nc3n(Cc3cccs3)c2=O)c2ccccc21 -10.6%, NS(=O)(=O)c1cc2c(cc1Cl)NC(Cc1ccccc1)NS2(=O)=O (stereo unspecified) -6%, CC1=C(C(=O)O)N2C(=O)[C@@H](NC(=O)[C@H](N)c3ccc(O)cc3)[C@H]2SC1 6.46%, CN1CCN(c2ncncc2-c2ccoc2)CC1 7.18%, CN(CC1(C)CCCO1)S(=O)(=O)c1ccc(Cl)c(S(N)(=O)=O)c1 (stereo unspecified) -11.1%, CC(CCC(=O)O)C1CCC2C3CC[C@@H]4CCCC[C@@]4(C)C3CC[C@@]12C (stereo partly specified) -7.33%, C[C@@H](O)[C@H]1C(=O)N2C(C(=O)O)=C(SCCN=CN)C[C@H]12 -17.9% and -21.2%, O=S1(=O)CCO[C@H]2CCCC[C@@H]2N1Cc1ccccc1 -16.7%, N#CC(=C(/N)Sc1ccccc1N)/C(C#N)=C(\N)Sc1ccccc1N 14.3% and -1.06%, CN(C)C(=O)c1ccc(-c2nc(N(C)C)c3ccccc3n2)cc1 -5.68%, O=C(O)CC/C=C\C[C@@H]1CO[C@H](c2ccccc2Cl)O[C@@H]1c1ccccc1O -11.3%, Cc1cccc(CNc2ncncc2-c2cccnc2)c1 -0.945%, Nc1nc2c(c(=O)[nH]1)N=C(CNc1ccc(C(=O)NC(CCC(=O)O)C(=O)O)cc1)CN2 (stereo unspecified) 4.18%, O=C(NCCN1Cc2ccccc2OC(c2ccccc2F)C1)c1cncs1 (stereo unspecified) -11.2%, CN(C)c1ccc(-c2nc(N(C)C)c3ccccc3n2)cc1 -2.08%, O=C(O)CCC/C=C\C[C@@H]1[C@@H](/C=C/[C@H](O)C2Cc3ccccc3C2)[C@@H](F)C[C@@H]1O -29%, COc1ccc(CNC(=O)C[C@H]2C(=O)N(CCc3ccccc3)C[C@@H]2Cc2ccccc2)cc1 -11.9%, COc1ccccc1CN1CCC2(CC1)CCN(C(=O)c1ccco1)CC2 -13.9%, COc1ncc2nc(C)c(=O)n(C[C@H]3CCCO3)c2n1 -4.72%, COCCn1c(=O)c(-c2ccc(Cl)cc2)nc2cnc(N3CCNCC3)nc21 2.87%, Cc1c(C(=O)NCC(C)(C)N2CCOCC2)cnn1-c1ncc2c(n1)-c1ccccc1CC2 -0.682%, COc1cccc(CN(C)C(=O)c2cnn(-c3ncc4c(n3)-c3ccccc3CCC4)c2C)c1 -13.5%, CC12CCC(C1)C(C)(C)C2=O (stereo unspecified) 9.93%, COc1ncc2ncc(=O)n(C)c2n1 4.8%, CCN(CC)c1ccc(/C=C/c2ccncc2)cc1 -14.4%, CN1CCN(c2cc(-c3ccccc3Cl)ncn2)CC1 -13.7%, CC(C)CN1CCC(=O)N([C@H](COc2ccccc2)c2ccccc2)CC1 -22.3%, COc1cc(C)c2c(=O)cc(-c3ccccc3)oc2c1 -6.39%, Cc1cc(C(=O)NCCN2Cc3ccccc3OC(c3ccccc3F)C2)no1 (stereo unspecified) -7.97%, N[C@@H](CSS(=O)(=O)O)C(=O)O -0.487% and 1.11% and 5.69%, CS(=O)(=O)Nc1cccc(-c2nccc(-n3ccnc3)n2)c1 -17.1%, Cc1cnc(-n2ncc(C(=O)N(C)CCc3ccccn3)c2-c2cccs2)nc1-c1ccc(F)cc1 -14.7%, O=C(c1cccc(F)c1)N(Cc1cc2cc3c(cc2nc1N1CCOCC1)CCC3)CC1CCCO1 (stereo unspecified) -18.8%, COC1[C@H](OC(N)=O)C(O)[C@H](Oc2ccc3c(O)c(NC(=O)c4ccc(O)c(CC=C(C)C)c4)c(=O)oc3c2C)OC1(C)C (stereo partly specified) 8.27%, COCCN1CCN(C(=O)c2cnn(-c3ncc4c(n3)-c3ccc(OC)cc3CC4)c2C2CC2)CC1 -5.12%, O=C(C[n+]1cccc2cc(Cl)ccc21)c1ccc(I)cc1 -18.5%, COc1cc(OC)c(CN2CCOc3ccc(CN4CCC(O)CC4)cc3C2)c(OC)c1 -16.5%, CC(C)C[C@@H](CO)N1CCN(Cc2ccc([N+](=O)[O-])cc2)CCC1=O -9.36%, CC(C)(Oc1ccc(C2CC2(Cl)Cl)cc1)C(=O)O (stereo unspecified) -32.2% and 6.11%, COCCn1c(=O)c(-c2ccc(F)c(F)c2)nc2cncnc21 3.12%, CCCCC[C@H](O)/C=C/[C@@H]1[C@@H](CCCCCCC(=O)O)[C@@H](O)C[C@H]1O -1.84%, COC(=O)N1CCC2(CC1)CN(c1ccccc1)C2 -14.8%, OC1(c2ccc3c(c2)CN(Cc2ccccn2)CCO3)CCN(c2ccccc2F)CC1 -53.2%, CN(C)Cc1ccccc1-c1cncnc1NCc1ccccc1 -18.5%, Brc1ccccc1-c1ccccc1 -18.1%, N#Cc1ccc(CN2CCCC3(CCN(C(=O)c4cccc(F)c4)CC3)C2)cc1 -1.26%, CCOc1nc2cccc(C(=O)OC(C)OC(=O)OC3CCCCC3)c2n1Cc1ccc(-c2ccccc2-c2nn[nH]n2)cc1 (stereo unspecified) -25.3%, CN(C)Cc1ccccc1-c1ccc2ncnc(NC3CC3)c2c1 -14.1%, O=C(Nc1ccccc1)N1CC2(CCN(C(=O)c3cc(C(F)(F)F)cc(C(F)(F)F)c3)CC2)C1 -13.7%, COC(=O)C1CCN(Cc2ccc3c(c2)CN(C(=O)c2cc4ccccc4n2C)CCO3)CC1 3.37%, Clc1ccc(-c2nc3sccn3c2/C=N/OCc2ccc(Cl)c(Cl)c2)cc1 -2.79% and -3.14%, COc1ccc(C(=O)N2CCC3(CCCN(Cc4ccccc4)C3)CC2)cc1 1.23%
